Laboratory results reported in a compilation of properties of binary mixtures (doi:10.1021/acs.jced.0c01028).
Some of these densities may be calculated back from excess volumes.

Experiment: xn = mol fraction of the nth substance listed
Conditions: 81.5 kPa

CCCCC(C)O (configuration not stated) + CCCC[n+]1ccn(C)c1.N#C[S-]
mass density [kg/m3]
Conditions | x2 = 0 | x2 = 0.1011 | x2 = 0.2003 | x2 = 0.2992 | x2 = 0.3988 | x2 = 0.4964 | x2 = 0.6029 | x2 = 0.6993 | x2 = 0.7996 | x2 = 0.8987
288.15 K | 818.1 | – | 890.3 | 921.2 | 949.6 | 974.9 | 1000.2 | 1021.2 | – | 1059.5
298.15 K | – | 848.9 | 883.3 | – | 943.2 | 968.8 | 994.2 | 1015.1 | 1035 | 1053
308.15 K | 802.2 | 841.2 | 875.9 | 907.4 | 936.3 | 962.2 | 987.9 | 1009.2 | – | 1047.3
318.15 K | 793.9 | – | 869.3 | – | – | 956.1 | 981.9 | 1003.1 | 1023 | 1041.1
328.15 K | 785.3 | – | – | 894.5 | 924 | 950 | 975.8 | 997.2 | 1017.3 | 1035.5
338.15 K | 776.5 | 818.5 | – | 887.5 | 917.4 | – | 969.9 | – | 1011.8 | 1030.1

CCCC[n+]1ccn(C)c1.N#C[S-] + CCCCC(C)O
x1 = 1
Conditions | mass density [kg/m3]
298.15 K | 1069.8
308.15 K | 1063.9
318.15 K | 1058
328.15 K | 1052.2
338.15 K | 1046.4
